# Results taken from the supplement of paper PMC10037445.
# In all, about 2,900 compounds were measured (“IRF Lucia reporter activity, fold change vs agonist alone”: median about 0.9, highest 2% from about 2.8 on). The list shows a part of the results.
# How the values were obtained:
# RAW-Dual [1] = assay: IRF Lucia reporter activity, fold change vs agonist alone; cytotoxicity flag (confluency mask): not cytotoxic; higher = enhanced IRF activity
# How it was run: (§1)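 After 50 nL of library stock was delivered by pin tool to RAW-Dual macrophages (50,000 cells/well, DMEM, 384-well plates), a PRR agonist was added 1 h later and the plates were kept at 37 °C, 5% CO2. Twenty hours later, IRF was read from supernatant by QuantiLuc luminescence and NF-κB by QuantiBlue absorbance at 620 nm. Reporter activity is stated as fold change over agonist-alone wells. Wells with IncuCyte confluency under 70% of agonist controls in both mask sets were counted as cytotoxic.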
# RAW-Dual [2] = assay: IRF Lucia reporter activity, fold change vs agonist alone; higher = enhanced IRF activity; settings: library stock concentration (final ~1000-fold dilution): 10 mM, agonist: MPLA (TLR4) […]
# How it was run: as §1
# RAW-Dual [3] = assay: IRF Lucia reporter activity, fold change vs agonist alone; cytotoxicity flag (confluency mask): cytotoxic (confluency <70% of control); higher = enhanced IRF activity
# How it was run: as §1
# [4] = agonist: 3'3'-cGAMP (STING) 10 ug/mL
# [5] = cytotoxicity flag (confluency mask): not cytotoxic
# [6] = cytotoxicity flag (confluency mask): cytotoxic (confluency <70% of control)
smiles,measurement,setting,value
CC(NC(=O)C(NC(=O)OCc1ccccc1)C(C)C)C(=O)NC(CC(=O)O)C(=O)CF (centres undefined) (library stock concentration (final ~1000-fold dilution): 10 mM),IRF Lucia reporter activity,RAW-Dual [1]; [4],0.946
same,IRF Lucia reporter activity,RAW-Dual [1]; agonist: LPS (TLR4) 0.1 ug/mL,0.949
CC(C)(NS(=O)(=O)c1ccc2c(Cl)cnc(NC(=N)N)c2c1)C(=O)O.Cl (library stock concentration (final ~1000-fold dilution): 10 mM),IRF Lucia reporter activity,RAW-Dual [1]; [4],1.03
same,IRF Lucia reporter activity,RAW-Dual [1]; agonist: LPS (TLR4) 0.1 ug/mL,1.23
CCOc1cc(N)c(Cl)cc1C(=O)NCC1CN(Cc2ccc(F)cc2)CCO1.O=C(O)CC(O)(CC(=O)O)C(=O)O (centres undefined) (library stock concentration (final ~1000-fold dilution): 10 mM),IRF Lucia reporter activity,RAW-Dual [1]; [4],0.997
same,IRF Lucia reporter activity,RAW-Dual [1]; agonist: LPS (TLR4) 0.1 ug/mL,0.921
CCOc1cc(N)c(Cl)cc1C(=O)NCC1CN(Cc2ccc(F)cc2)CCO1.O=C(O)CC(O)(CC(=O)O)C(=O)O (centres undefined),IRF Lucia reporter activity,RAW-Dual [2]; [5],1.02
C=CC(=O)Nc1cccc(Oc2nc(Nc3ccc(N4CCN(C)CC4)cc3)ncc2Cl)c1,IRF Lucia reporter activity,RAW-Dual [2]; [5],0.1
C=CC(=O)Nc1cccc(Oc2nc(Nc3ccc(N4CCN(C)CC4)cc3)ncc2Cl)c1 (library stock concentration (final ~1000-fold dilution): 10 mM),IRF Lucia reporter activity,RAW-Dual [1]; [4],0.0139
same,IRF Lucia reporter activity,RAW-Dual [1]; agonist: LPS (TLR4) 0.1 ug/mL,0.0488
O=C(Oc1cccc(F)c1OC(=O)c1cccc(O)c1)c1cccc(O)c1 (library stock concentration (final ~1000-fold dilution): 10 mM),IRF Lucia reporter activity,RAW-Dual [3]; [4],0.121
same,IRF Lucia reporter activity,RAW-Dual [3]; agonist: LPS (TLR4) 0.1 ug/mL,0.903
CCCCC(CC)COC(=O)CC(C(=O)OCC(CC)CCCC)S(=O)(=O)O (centres undefined) (library stock concentration (final ~1000-fold dilution): 10 mM),IRF Lucia reporter activity,RAW-Dual [3]; [4],1.07
same,IRF Lucia reporter activity,RAW-Dual [3]; agonist: LPS (TLR4) 0.1 ug/mL,1.34
CCCCC(CC)COC(=O)CC(C(=O)OCC(CC)CCCC)S(=O)(=O)O (centres undefined),IRF Lucia reporter activity,RAW-Dual [2]; [6],1.07
C=CC1CN2CCC1CC2C(O)c1ccnc2ccc(OC)cc12.C=CC1CN2CCC1CC2C(O)c1ccnc2ccc(OC)cc12.O.O.O=S(=O)(O)O (centres undefined),IRF Lucia reporter activity,RAW-Dual [2]; [5],1.02
C=CC1CN2CCC1CC2C(O)c1ccnc2ccc(OC)cc12.C=CC1CN2CCC1CC2C(O)c1ccnc2ccc(OC)cc12.O.O.O=S(=O)(O)O (centres undefined) (library stock concentration (final ~1000-fold dilution): 10 mM),IRF Lucia reporter activity,RAW-Dual [1]; [4],0.484
same,IRF Lucia reporter activity,RAW-Dual [1]; agonist: LPS (TLR4) 0.1 ug/mL,1.23
NC(CO)(CO)CO.O=C(c1ccccc1)c1ccc2n1CCC2C(=O)O (centres undefined) (library stock concentration (final ~1000-fold dilution): 10 mM),IRF Lucia reporter activity,RAW-Dual [1]; [4],1
same,IRF Lucia reporter activity,RAW-Dual [1]; agonist: LPS (TLR4) 0.1 ug/mL,0.974
NC(CO)(CO)CO.O=C(c1ccccc1)c1ccc2n1CCC2C(=O)O (centres undefined),IRF Lucia reporter activity,RAW-Dual [2]; [5],1.06
CNCCC(Oc1ccc(C(F)(F)F)cc1)c1ccccc1.Cl (centres undefined),IRF Lucia reporter activity,RAW-Dual [2]; [6],1.52
CNCCC(Oc1ccc(C(F)(F)F)cc1)c1ccccc1.Cl (centres undefined) (library stock concentration (final ~1000-fold dilution): 10 mM),IRF Lucia reporter activity,RAW-Dual [3]; [4],0.863
same,IRF Lucia reporter activity,RAW-Dual [3]; agonist: LPS (TLR4) 0.1 ug/mL,0.665
COc1cn(-c2ccc(-n3cccn3)cc2F)nc(-c2ccnn2-c2ccccc2)c1=O (library stock concentration (final ~1000-fold dilution): 10 mM),IRF Lucia reporter activity,RAW-Dual [1]; [4],1.3
same,IRF Lucia reporter activity,RAW-Dual [1]; agonist: LPS (TLR4) 0.1 ug/mL,1.01
COC(=O)NC(C(=O)NC(Cc1ccccc1)C(O)CN(Cc1ccc(-c2ccccn2)cc1)NC(=O)C(NC(=O)OC)C(C)(C)C)C(C)(C)C (centres undefined),IRF Lucia reporter activity,RAW-Dual [2]; [5],1.03
COC(=O)NC(C(=O)NC(Cc1ccccc1)C(O)CN(Cc1ccc(-c2ccccn2)cc1)NC(=O)C(NC(=O)OC)C(C)(C)C)C(C)(C)C (centres undefined) (library stock concentration (final ~1000-fold dilution): 10 mM),IRF Lucia reporter activity,RAW-Dual [1]; [4],1.04
same,IRF Lucia reporter activity,RAW-Dual [1]; agonist: LPS (TLR4) 0.1 ug/mL,1.12
Cl.Cl.Fc1cc(-c2cccc3ncc(-c4cnn(C5CCNCC5)c4)nc23)cc(F)c1CN1CCOCC1 (library stock concentration (final ~1000-fold dilution): 10 mM),IRF Lucia reporter activity,RAW-Dual [1]; [4],1.03
same,IRF Lucia reporter activity,RAW-Dual [1]; agonist: LPS (TLR4) 0.1 ug/mL,0.0282
Cl.Cl.Fc1cc(-c2cccc3ncc(-c4cnn(C5CCNCC5)c4)nc23)cc(F)c1CN1CCOCC1,IRF Lucia reporter activity,RAW-Dual [2]; [5],1.15
Cc1cn(-c2cc(NC(=O)c3ccc(C)c(Nc4nccc(-c5cccnc5)n4)c3)cc(C(F)(F)F)c2)cn1.Cl,IRF Lucia reporter activity,RAW-Dual [2]; [5],2.17
Cc1cn(-c2cc(NC(=O)c3ccc(C)c(Nc4nccc(-c5cccnc5)n4)c3)cc(C(F)(F)F)c2)cn1.Cl (library stock concentration (final ~1000-fold dilution): 10 mM),IRF Lucia reporter activity,RAW-Dual [1]; [4],0.448
same,IRF Lucia reporter activity,RAW-Dual [1]; agonist: LPS (TLR4) 0.1 ug/mL,1.55
CCN(CC)CCCC(C)Nc1c2ccc(Cl)cc2nc2ccc(OC)cc12.Cl.Cl (centres undefined),IRF Lucia reporter activity,RAW-Dual [2]; [6],0.84
CCN(CC)CCCC(C)Nc1c2ccc(Cl)cc2nc2ccc(OC)cc12.Cl.Cl (centres undefined) (library stock concentration (final ~1000-fold dilution): 10 mM),IRF Lucia reporter activity,RAW-Dual [3]; [4],0.643
same,IRF Lucia reporter activity,RAW-Dual [3]; agonist: LPS (TLR4) 0.1 ug/mL,0.0599
COCCNC(=O)Nc1ccc2nc(-c3cccs3)c(-c3cccs3)nc2c1 (library stock concentration (final ~1000-fold dilution): 10 mM),IRF Lucia reporter activity,RAW-Dual [3]; [4],0.0185
same,IRF Lucia reporter activity,RAW-Dual [3]; agonist: LPS (TLR4) 0.1 ug/mL,0.19
Cc1cc(C(=O)Nc2nc3cccc(Cl)c3n2C2CCCCN(C(=O)/C=C/CN(C)C)C2)ccn1 (centres undefined) (library stock concentration (final ~1000-fold dilution): 10 mM),IRF Lucia reporter activity,RAW-Dual [1]; [4],0.15
same,IRF Lucia reporter activity,RAW-Dual [1]; agonist: LPS (TLR4) 0.1 ug/mL,0.668
CC(C)c1ccccc1Cc1cc(C(=O)Nc2ccc(S(=O)(=O)c3ccccc3C(C)(C)C)cc2)c(O)c(O)c1O (library stock concentration (final ~1000-fold dilution): 10 mM),IRF Lucia reporter activity,RAW-Dual [1]; [4],0.0931
same,IRF Lucia reporter activity,RAW-Dual [1]; agonist: LPS (TLR4) 0.1 ug/mL,0.897
